# Test results as given in PubChem BioAssay AID1347416 (National Center for Advancing Translational Sciences (NCATS), 2020).
# The campaign covered roughly 4,100 compounds. About 1,600 (39%) were called active. The shares of active, inactive and inconclusive entries below differ from those in the screen. The call rests on the fitted dose curve; in most records, active means well fitted inhibition curve with a large enough effect; inconclusive means small, poorly fitted or top-dose-only effect; inactive means no such curve, though single readings can be large or run the other way. Where the call is inconclusive, the potency comes from a doubtful curve fit.
# Assay: qHTS Validation assay for Inhibitors of Plasmodium falciparum Dd2 growth in vitro; further: nearly all actives have a fitted effect of over 70% in size
# Conditions: P. falciparum Dd2 in RBCs, SYBR Green growth, 72 h; series mostly up to 28.7 µM
# How it was run: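 P. falciparum Dd2-infected red blood cells (2.5% hematocrit, 0.3% parasitemia) grown 72 h at 37 °C under 5% O2 with compounds in a titration, 29 uM to 0.5 nM final. Growth read as SYBR Green-1 fluorescence after ~16 h lysis; artesunate 300 nM as positive control.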
# Potency means the concentration at half of the fitted maximal effect; tags describe the fitted curve by direction and shape.
row,SMILES,Potency
1,O=C(NC1CCCN(c2cc(-c3ccccc3)[nH]n2)C1)c1cc(F)ccc1F (configuration not stated),inactive
2,CSc1nnc2c3c4c(sc3c(=O)n(-c3ccccc3)n12)CC(C)(C)OC4,inactive
3,COc1ccc(-c2noc(-c3cccn3CC(=O)NCCc3ccccc3)n2)cc1F,"inconclusive: 21.1 µM [inhibitor, single point]"
4,Cc1cc(C)c(Cn2c(=O)n(CCCCC(=O)NCc3ccccc3Cl)c(=O)c3ccccc32)c(C)c1,inactive
5,O=C(Cc1cccs1)N1CC(c2noc(C3CCCN3CC3CC3)n2)C1 (configuration not stated),"inconclusive: 18.8 µM [inhibitor, single point]"
6,CCN1CCN(c2cc(C)c3cc(NC(=O)c4cc(Cl)ccc4OC)ccc3n2)CC1,"inconclusive: 0.0084 µM [inhibitor, full curve, poor fit]"
7,Cc1ccccc1Cn1c(CN2CCC(C(=O)NCCN(C)C)CC2)cc2ccccc21,"inconclusive: 4.22 µM [inhibitor, partial curve, poor fit]"
8,CCN(CC)CCN1C(=O)c2ccccc2NC1c1ccc(Br)cc1 (configuration not stated),active: 1.5 µM
9,Cc1cccc(N2CCN(c3nc4ccccc4c4nnc(C)n34)CC2)c1C,active: 5.31 µM
10,COc1ccccc1CC(=O)Nc1cccn2nc(C(C)C)nc12,"inconclusive: 21.1 µM [inhibitor, single point]"
11,Cc1cn2nc(C(=O)N3CCC(C(=O)NCc4cccnc4)CC3)cc2c(=O)[nH]1,inactive
12,Cc1ccc(C)c(NC(=O)CN(C)C(=O)c2cc3ccccc3o2)c1,active: 13.3 µM
13,CC(C)c1noc(-c2cccn3c(CNC(=O)COc4ccc(F)cc4)nnc23)n1,inactive
14,Cc1nc2cc(N3CCCC(C(=O)NCCN4CCCCCC4)C3)cnc2nc1C (configuration not stated),inactive
15,Cc1cccc(OCC2(CNCc3ccc(F)cc3)C[C@@H](O)[C@@H](O)C2)n1 (some centres not stated),"inconclusive: 15.3 µM [inhibitor, partial curve, poor fit]"
16,COc1ccc(-c2cc(N3CCC(NC(=O)c4ccc(F)cc4F)CC3)n[nH]2)cc1,"inconclusive: 11.9 µM [inhibitor, partial curve, poor fit]"
17,N=c1ccn(Cc2cccc(Cl)c2)cc1,"inconclusive: 21.1 µM [inhibitor, single point]"
18,COCCN1C(=O)[C@@H]2C[C@@H](CN2Cc2ccc(Cl)cc2)Oc2ccccc21,"inconclusive: 21.7 µM [inhibitor, single point]"
19,Cc1nnc(-c2cc(-c3cccc(N(C)C)c3)ccn2)n1Cc1ccncc1,"inconclusive: 30.6 µM [inhibitor, single point]"
20,CCNc1nc2c(c(=O)n(C)c(=O)n2C)n1Cc1ccc(F)cc1,inactive
21,Cc1cc(C)cc(NC(=O)NCc2c(-n3cccc3)sc3c2CCCC3)c1,inactive
22,Cc1nonc1CC(=O)N1CCCC(CNS(=O)(=O)c2cccs2)C1 (configuration not stated),inactive
23,CCCn1cc(C2CCN(S(=O)(=O)c3c(C)cc(C)cc3C)CC2)c2ccccc21,"inconclusive: 21.1 µM [inhibitor, single point]"
24,CCN(CC)CCCNC(=O)c1ccc2c(c1)sc1nc(-c3ccc(C)cc3)cn12,"inconclusive: 6.68 µM [inhibitor, full curve, poor fit]"

row,SMILES,Potency
1,COc1ccc(CCNC(=O)c2ccc3c(c2)N=C(C)c2ccccc2S3)cc1OC,"inconclusive: 16.8 µM [inhibitor, single point]"
2,Cc1ccc(CN2CCC(CNC(=O)c3cnn(-c4ccc(C)cc4)c3C3CCN(C(=O)OC(C)(C)C)CC3)CC2)cc1,active: 8.41 µM
3,O=C(/C=C/c1ccco1)NC(=S)Nc1ccccc1N1CCCC1,active: 2.66 µM
4,COc1ccc2[nH]c3c(NCCN4CCCCC4)ncnc3c2c1,"inconclusive: 16.8 µM [inhibitor, single point]"
5,O=C(Nc1ccccc1OCc1cc(=O)n2ccccc2n1)Nc1ccccc1C(F)(F)F,inactive
6,Cc1nc(CN2C[C@H](C(=O)Nc3ccccc3)C[C@@H]2c2ccc(F)cc2)cs1,"inconclusive: 27.3 µM [inhibitor, single point]"
7,Cc1cccc(N(C)S(=O)(=O)c2nnc(NC(=O)C(C)Oc3ccccc3)s2)c1 (configuration not stated),inactive
8,Cc1ccc(CN2CC[C@@H]3C(=O)NCCCCCCN(Cc4ccncc4)[C@@H]3C2)o1,"inconclusive: 2.11 µM [inhibitor, full curve]"
9,COc1ccc(Nc2cc(O)c3ncccc3c2)cc1,active: 0.75 µM
10,Cc1ccc(C)c(C(=O)N2CCC3(CC2)N=C(c2ccc(Cl)cc2)NO3)c1,"inconclusive: 9.44 µM [inhibitor, partial curve]"
11,COc1ccc(C2=NOC3(CCN([S+](=O)([O-])c4cccc(OC)c4)C3)C2)cc1 (configuration not stated),inactive
12,CCC(=O)Nc1nc2ccccc2n1Cc1ccccc1C,"inconclusive: 10.6 µM [inhibitor, partial curve, poor fit]"
13,CCC(c1nnnn1Cc1ccco1)N(Cc1ccccc1OC)Cc1cc2cc(C)ccc2[nH]c1=O (configuration not stated),"inconclusive: 18.8 µM [inhibitor, single point]"
14,COC(=O)CSc1nc2c(c(-c3ccco3)c1C#N)CCCC2,inactive
15,COc1cccc2sc(N3CCN(C(=O)c4ccc([N+](=O)[O-])o4)CC3)nc12,"inconclusive: 4.73 µM [inhibitor, full curve]"
16,CC(=O)c1cn(CCOc2ccc(F)cc2)c2ccccc12,"inconclusive: 21.1 µM [inhibitor, single point]"
17,O=C(NC1CCCCC1)c1ccc(Cn2c(SCc3cccc(F)c3)nc3cccnc32)cc1,"inconclusive: 21.1 µM [inhibitor, single point]"
18,Cc1cccc(C(=O)NCc2nnc3c(-c4nc(C(C)C)no4)cccn23)c1,inactive
19,Cc1ccc(C(=O)NCc2nnc3cc(-c4nc(C5CC5)no4)ccn23)cc1C,"inconclusive: 21.1 µM [inhibitor, partial curve, poor fit]"
20,Cc1ccc(-c2cc3c(=O)n(CCNC(=O)c4nn(C)c5ccccc45)ccn3n2)cc1C,"inconclusive: 23.7 µM [inhibitor, single point]"
21,CC1(CNc2ccccc2)COc2ccc(C(=O)NCCc3ccccn3)cc2N1 (configuration not stated),"inconclusive: 34.4 µM [inhibitor, single point]"
22,CC1Oc2ccc(NC(=O)c3ccc(Cl)c(Cl)c3)cc2CN(Cc2ccccc2F)C1=O (configuration not stated),inactive
23,CCN(CC)CCNC(=O)C1CCCN(S(=O)(=O)c2ccccc2)CCC(=O)NCC1 (configuration not stated),inactive
24,COC(=O)COc1ccc(-c2nccc(-c3ccccn3)n2)cc1,inactive

row,SMILES,Potency
1,COc1ccccc1CNC(=O)C[C@@H]1CCNC[C@@H]1Cc1cc(-c2ccccc2)on1,"inconclusive: 24.3 µM [inhibitor, single point]"
2,O=C(Nc1ncccc1O)c1ccc(C(=O)c2ccccc2)cc1,"inconclusive: 0.596 µM [inhibitor, full curve, poor fit]"
3,S=C(NCc1ccccc1)Nc1ccncc1,inactive
4,CC1(NC(=O)C2CC2)CN(Cc2nc(-c3ccccc3OCc3ccccc3)cs2)C1,"inconclusive: 30.6 µM [inhibitor, single point]"
5,Cc1ccc(NCC(=O)Nc2cccc(F)c2)cc1S(=O)(=O)N1CCCCCC1,"inconclusive: 0.596 µM [inhibitor, full curve, poor fit]"
6,CC(NC(=O)Cc1cccc(F)c1)C(=O)N1CCN(c2ccccn2)CC1 (configuration not stated),inactive
7,CN1C[C@@H](NC(=O)COc2ccccc2)C[C@H]1c1nc(-c2ccc3c(c2)OCO3)no1,inactive
8,Cc1c(Cl)cccc1NC(=S)N1CCN(S(=O)(=O)c2cccs2)CC1,"inconclusive: 8.41 µM [inhibitor, partial curve, poor fit]"
9,COCC1CN(C2CCC2)CC12CCN(C(=O)NCc1ccccc1)CC2 (configuration not stated),"inconclusive: 15 µM [inhibitor, partial curve, poor fit]"
10,Cc1cc(N2CCN(C)CC2)nc2ccc(NC(=O)c3ccc(Br)o3)cc12,active: 6.68 µM
11,CCNC(=O)N1CC(Oc2cccc(-c3nc(-c4ccccc4)no3)c2)C1,"inconclusive: 21.1 µM [inhibitor, single point]"
12,COc1ccc(NC(=O)c2cccc3c2CCN3C(=O)Nc2ccc(F)cc2)c(C)c1,inactive
13,O=C(N/N=C(\CC(=O)c1cccs1)C(F)(F)F)c1ccncc1,inactive
14,COc1ccc(NC(=O)c2c(C)oc3ccc(O)c(CN4CCN(Cc5ccccc5)CC4)c23)cc1,active: 2.66 µM
15,CCCCCCCn1c(NC(=O)CC)nc2ccccc21,active: 16.8 µM
16,O=c1c2ccccc2sc2nc(C3CCCCC3)n(Cc3ccco3)c(=O)c12,active: 7.5 µM
17,COc1ccc(N2C(N)=NC(N)=NC2(C)C)cc1,inactive
18,COCc1ccc2c(c1)c(OC(C)(C)C(=O)N1CCOCC1)nn2Cc1cccc(OC)c1,"inconclusive: 8.41 µM [inhibitor, partial curve]"
19,CCNc1nc(NCc2ccccc2)nc(Oc2ccc(=O)[nH]n2)n1,"inconclusive: 2.11 µM [inhibitor, full curve]"
20,Cc1oc2ccc(O)c(CN3CCCC(C)C3)c2c1C(=O)Nc1ccccc1 (configuration not stated),active: 2.11 µM
21,CC(C)N(Cc1nc2ccccc2[nH]1)C(C)C,inactive
22,CC1CCCCN1C(=O)CSc1nnc2c(n1)[nH]c1ccccc12 (configuration not stated),"inconclusive: 7.5 µM [inhibitor, single point]"
23,Cc1ccc(CNCc2cc3c(C(C)(C)C)nn(-c4ccccc4)c3[nH]c2=O)cc1,active: 0.266 µM
24,COc1ccc(NC(=O)c2ccc3c(c2)N(S(=O)(=O)c2ccccc2)CC3)cc1,"inconclusive: 21.1 µM [inhibitor, single point]"
